In paper PMC8425901:
No constants are given. Whether binding was seen depends on the method and setting. For part of these data: Binding seen in cells or lysates may run through a third protein. Some entries that bind do so weakly or less than the wild type.

The chains behind the UniProt entries cited, without tags or fusion partners. Residues count along the entry.
UniProt Q9P289: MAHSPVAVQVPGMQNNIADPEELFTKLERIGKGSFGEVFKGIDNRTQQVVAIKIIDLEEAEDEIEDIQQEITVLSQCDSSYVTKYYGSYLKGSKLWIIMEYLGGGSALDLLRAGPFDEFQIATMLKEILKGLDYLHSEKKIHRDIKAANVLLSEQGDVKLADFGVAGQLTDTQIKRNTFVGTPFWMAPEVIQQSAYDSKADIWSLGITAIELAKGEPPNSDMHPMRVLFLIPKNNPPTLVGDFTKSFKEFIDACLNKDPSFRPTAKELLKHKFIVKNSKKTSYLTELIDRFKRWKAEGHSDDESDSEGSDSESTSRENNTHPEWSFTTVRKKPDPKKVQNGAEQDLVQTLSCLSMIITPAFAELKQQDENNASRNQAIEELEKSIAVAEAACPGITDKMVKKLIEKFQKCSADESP
UniProt O75197, residues 32-1615: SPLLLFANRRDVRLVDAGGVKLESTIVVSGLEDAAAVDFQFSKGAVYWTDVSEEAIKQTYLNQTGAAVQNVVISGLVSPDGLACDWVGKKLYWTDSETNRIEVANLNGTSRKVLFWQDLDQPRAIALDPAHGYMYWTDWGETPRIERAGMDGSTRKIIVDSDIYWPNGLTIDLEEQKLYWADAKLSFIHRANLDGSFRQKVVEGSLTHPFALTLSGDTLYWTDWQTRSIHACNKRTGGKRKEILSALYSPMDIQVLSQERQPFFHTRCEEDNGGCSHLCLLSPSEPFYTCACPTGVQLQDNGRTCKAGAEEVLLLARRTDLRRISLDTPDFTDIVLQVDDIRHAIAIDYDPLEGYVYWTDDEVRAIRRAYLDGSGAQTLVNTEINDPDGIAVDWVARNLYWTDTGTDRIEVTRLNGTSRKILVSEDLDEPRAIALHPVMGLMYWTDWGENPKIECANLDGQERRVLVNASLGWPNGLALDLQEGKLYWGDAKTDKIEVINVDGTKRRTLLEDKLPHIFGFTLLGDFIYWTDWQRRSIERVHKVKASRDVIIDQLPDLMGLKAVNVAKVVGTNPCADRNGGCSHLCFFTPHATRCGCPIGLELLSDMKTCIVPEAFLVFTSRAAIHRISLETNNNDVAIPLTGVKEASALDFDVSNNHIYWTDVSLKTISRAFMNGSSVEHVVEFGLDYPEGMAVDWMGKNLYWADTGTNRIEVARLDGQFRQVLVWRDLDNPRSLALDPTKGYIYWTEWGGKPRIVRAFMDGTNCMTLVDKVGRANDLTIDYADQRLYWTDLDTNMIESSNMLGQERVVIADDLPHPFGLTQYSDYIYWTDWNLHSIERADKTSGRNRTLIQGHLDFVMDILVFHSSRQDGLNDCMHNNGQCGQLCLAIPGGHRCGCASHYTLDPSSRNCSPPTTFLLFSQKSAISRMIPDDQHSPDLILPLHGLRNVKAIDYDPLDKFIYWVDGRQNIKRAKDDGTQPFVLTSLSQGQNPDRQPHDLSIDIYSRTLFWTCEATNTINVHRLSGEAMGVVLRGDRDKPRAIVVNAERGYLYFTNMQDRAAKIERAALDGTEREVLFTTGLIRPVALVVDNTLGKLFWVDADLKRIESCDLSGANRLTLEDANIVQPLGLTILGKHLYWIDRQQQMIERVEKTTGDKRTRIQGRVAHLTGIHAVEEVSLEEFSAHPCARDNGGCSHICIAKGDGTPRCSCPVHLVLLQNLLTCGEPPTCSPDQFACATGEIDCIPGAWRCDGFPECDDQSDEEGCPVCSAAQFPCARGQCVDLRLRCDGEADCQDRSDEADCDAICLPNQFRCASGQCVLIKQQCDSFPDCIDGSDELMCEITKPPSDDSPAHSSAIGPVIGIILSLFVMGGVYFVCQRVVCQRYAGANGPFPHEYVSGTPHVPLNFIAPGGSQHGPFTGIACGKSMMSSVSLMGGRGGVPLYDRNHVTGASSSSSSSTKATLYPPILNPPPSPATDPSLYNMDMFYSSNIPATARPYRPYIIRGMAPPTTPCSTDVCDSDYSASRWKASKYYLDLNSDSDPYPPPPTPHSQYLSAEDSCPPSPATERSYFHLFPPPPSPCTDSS
UniProt Q9Y297: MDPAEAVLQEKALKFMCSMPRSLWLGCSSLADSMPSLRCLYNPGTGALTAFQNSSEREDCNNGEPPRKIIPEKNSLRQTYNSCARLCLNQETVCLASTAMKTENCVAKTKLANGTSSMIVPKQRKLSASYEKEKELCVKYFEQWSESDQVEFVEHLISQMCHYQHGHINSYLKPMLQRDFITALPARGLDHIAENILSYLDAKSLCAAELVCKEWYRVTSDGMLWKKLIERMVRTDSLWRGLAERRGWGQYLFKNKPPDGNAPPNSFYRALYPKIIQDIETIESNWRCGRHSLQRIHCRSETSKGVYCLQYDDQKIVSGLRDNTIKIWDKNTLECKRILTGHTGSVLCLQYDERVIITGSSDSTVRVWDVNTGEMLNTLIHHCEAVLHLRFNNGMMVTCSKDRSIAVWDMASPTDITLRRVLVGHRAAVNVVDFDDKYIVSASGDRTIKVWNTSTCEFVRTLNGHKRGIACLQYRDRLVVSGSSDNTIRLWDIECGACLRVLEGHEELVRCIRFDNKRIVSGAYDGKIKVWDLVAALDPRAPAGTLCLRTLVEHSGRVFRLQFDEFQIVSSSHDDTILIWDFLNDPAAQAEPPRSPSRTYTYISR
UniProt P49840: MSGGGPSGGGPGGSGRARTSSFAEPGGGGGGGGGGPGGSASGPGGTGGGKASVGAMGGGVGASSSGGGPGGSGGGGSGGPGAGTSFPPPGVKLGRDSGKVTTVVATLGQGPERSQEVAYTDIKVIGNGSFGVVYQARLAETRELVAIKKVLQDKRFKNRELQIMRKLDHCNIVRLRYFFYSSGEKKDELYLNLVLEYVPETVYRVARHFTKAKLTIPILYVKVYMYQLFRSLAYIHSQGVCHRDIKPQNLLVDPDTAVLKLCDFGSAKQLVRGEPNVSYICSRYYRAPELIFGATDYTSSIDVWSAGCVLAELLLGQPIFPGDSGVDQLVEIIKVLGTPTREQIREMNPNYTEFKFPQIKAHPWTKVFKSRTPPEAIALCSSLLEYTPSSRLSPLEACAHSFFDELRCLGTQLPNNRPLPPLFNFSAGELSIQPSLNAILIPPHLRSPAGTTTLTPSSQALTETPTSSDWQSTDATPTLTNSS
UniProt P49841: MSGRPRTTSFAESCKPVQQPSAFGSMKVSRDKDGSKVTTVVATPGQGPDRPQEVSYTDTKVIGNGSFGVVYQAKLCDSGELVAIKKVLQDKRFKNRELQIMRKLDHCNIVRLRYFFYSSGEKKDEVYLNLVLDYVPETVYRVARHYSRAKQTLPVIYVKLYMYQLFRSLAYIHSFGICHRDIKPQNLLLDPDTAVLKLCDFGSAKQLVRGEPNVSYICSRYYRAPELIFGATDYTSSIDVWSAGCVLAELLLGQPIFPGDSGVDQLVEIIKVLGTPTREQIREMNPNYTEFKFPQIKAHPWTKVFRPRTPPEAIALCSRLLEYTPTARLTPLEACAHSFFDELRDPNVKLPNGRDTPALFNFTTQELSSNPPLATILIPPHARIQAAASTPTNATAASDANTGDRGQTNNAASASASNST
UniProt P35222: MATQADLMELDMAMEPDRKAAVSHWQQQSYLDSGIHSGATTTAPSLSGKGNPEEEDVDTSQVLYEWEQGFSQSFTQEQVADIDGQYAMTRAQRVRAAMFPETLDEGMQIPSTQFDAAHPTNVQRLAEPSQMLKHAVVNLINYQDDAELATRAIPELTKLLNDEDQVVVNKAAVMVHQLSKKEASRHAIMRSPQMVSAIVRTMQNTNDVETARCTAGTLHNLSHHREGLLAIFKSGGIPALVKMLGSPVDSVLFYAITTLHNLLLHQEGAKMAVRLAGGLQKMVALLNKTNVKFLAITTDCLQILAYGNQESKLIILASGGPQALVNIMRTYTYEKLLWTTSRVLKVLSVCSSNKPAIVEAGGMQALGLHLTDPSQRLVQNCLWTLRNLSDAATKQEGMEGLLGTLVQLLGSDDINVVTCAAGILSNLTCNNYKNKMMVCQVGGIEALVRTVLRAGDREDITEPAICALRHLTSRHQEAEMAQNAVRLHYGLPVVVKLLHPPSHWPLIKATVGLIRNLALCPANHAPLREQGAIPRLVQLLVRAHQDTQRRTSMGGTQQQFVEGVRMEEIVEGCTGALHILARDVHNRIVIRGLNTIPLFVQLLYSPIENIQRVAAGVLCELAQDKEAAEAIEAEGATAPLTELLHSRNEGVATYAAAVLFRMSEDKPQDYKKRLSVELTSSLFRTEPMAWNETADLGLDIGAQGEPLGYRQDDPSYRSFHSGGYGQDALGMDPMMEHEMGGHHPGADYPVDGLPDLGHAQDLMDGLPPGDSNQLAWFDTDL

biological target: MST4 (endogenous) (human (endogenous in HEK293FT)) (UniProt Q9P289); experiment: co-IP; endogenous proteins in HEK293FT cells, with and without Wnt3a treatment; IP buffer 20 mM Tris-HCl pH 7.5, 100 mM NaCl, 0.5% NP-40, 1 mM EDTA; overnight at 4 °C

Substance | binding
LRP5 (endogenous) (from UniProt O75197 32-1615) (receptor) | binds
β-TrCP (endogenous) (from UniProt Q9Y297 1-605) | no binding

Continued, values first:

binding | Substance
binds | GSK3α (endogenous) (from UniProt P49840 1-483) (enzyme)
binds | GSK3β (endogenous) (from UniProt P49841 1-420) (enzyme)
binds | β-catenin (endogenous) (from UniProt P35222 1-781)

biological target: maltose binding protein (MBP)-tagged MST4 (UniProt Q9P289); experiment: pull-down; MBP-tagged MST4 coupled onto amylose resin beads, incubated with His-tagged β-catenin; 20 mM HEPES pH 7.5, 100 mM NaCl, 1 mM dithiothreitol, 4 °C, 1 h; eluted with 20 mM maltose; both purified

binding | Substance
binds | His-tagged β-catenin (from UniProt P35222 1-781)
